What was measured:
[1] = target: the molecule itself; experiment: SEC + native gel or EMSA; in vitro, with or without Ca^2+; detergents needed to keep the proteins soluble
[2] = target: the molecule itself; experiment: SEC; in vitro gel filtration elution profiles of SOAR (Supplementary Fig. 2f), without detergent

Row | Protein | stoichiometry N [1] | stoichiometry N [2]
1 | STIM1 […] (characterized in vitro) (domain or fragment, signal peptide in the construct; it may be the CFP fusion m33) not shown | 2 | 
2 | SOAR (recombinant, in vitro gel filtration) (domain or fragment, probably from pMCSG9-SOAR as m15; also called dimeric SOAR; source: recombinant) not shown |  | 2

Source: paper PMC4509486, “Inside-out Ca^2+ signalling prompted by STIM1 conformational switch” (Nature Communications, 2015)
